# In all, about 55,000 compounds went through this assay and about 340 (0.62%) were called active. The inconclusive results got no clear call from the source; some entries with a clear call stand among them for comparison. Calls come from the whole dose curve; as a rule, active = well fitted cell-killing curve with a large enough effect; inconclusive = small, poorly fitted or top-dose-only effect; inactive = no such curve, though single readings can be large or run the other way. A potency beside an inconclusive call is a rough fit, not a confirmed value.
# Assay: qHTS Screen for Compounds that Selectively Target Cancer Cells with p53 Mutations: Cytotoxicity of p53 Null Cells at the Permissive Temperature; note: nearly all actives have a fitted effect of over 55% in size
# Settings: H1299-neo p53 null cells, ATP luminescence, 24 h, 32C; series mostly up to 46.1 µM
# Outline: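 H1299-neo (p53-null) cells, 600/well, were pre-incubated overnight at 37C, then exposed to compounds at up to 46 uM for 24 hr at 32C. Viability was measured as ATP content by luminescence, and AC50 values came from Hill fits.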
# Potency is the fitted concentration of half-maximal effect; tags give direction and shape of the fitted curve.
row,SMILES,Potency
1,Cc1ccc(CNC(=O)c2ccc3c(c2)c(C)c(C)n3Cc2ccccc2)o1,inactive
2,Cc1cccc(Nc2nc(-c3cccs3)cs2)n1,"inconclusive: 22.4 µM [cytotoxic, single point]"
3,Cc1ccc(Cl)cc1NS(=O)(=O)c1ccc2oc(=O)c3ncn(C)c3c2c1,"inconclusive: 20 µM [cytotoxic, single point]"
4,CC(=O)c1ccc(NS(=O)(=O)c2cnc(N)nc2)cc1,"inconclusive: 2.82 µM [cytotoxic, full curve]"
5,CCc1ccc(C(c2ccccc2)c2c[nH]c3ccc(C)cc23)s1 (stereo unspecified),"inconclusive: 3.98 µM [cytotoxic, single point]"
6,O=C(/C=C\c1ccc(-c2ccccc2)o1)c1ccccc1,"inconclusive: 10 µM [cytotoxic, single point]"
7,O=S(=O)(Nc1cccc(-c2ccc(N3CCOCC3)nn2)c1)c1ccc(F)c(C(F)(F)F)c1,"inconclusive: 10 µM [cytotoxic, partial curve]"
8,COc1cc(OC)cc(C(=O)Nc2cccc(-c3cn4ccsc4n3)c2)c1,"inconclusive: 4.47 µM [cytotoxic, single point]"
9,CCOc1ccc(-c2cn3nc(CC(C)C)sc3n2)cc1,"inconclusive: 10 µM [cytotoxic, partial curve]"
10,CC(C)Nc1ncnc2c1cnn2-c1ccccc1,active: 11.2 µM
11,COc1cc(Nc2nc(-c3ccc(OC)c(OC)c3)nc3ccccc23)cc(OC)c1,"inconclusive: 3.98 µM [cytotoxic, single point]"
12,CCN(CC)c1ccc2c(c1)CCCN2,"inconclusive: 12.6 µM [cytotoxic, single point]"
13,CCOC(=O)c1ccccc1NC(=O)c1c(C)oc2ncnc(N3CCOCC3)c12,inactive
14,Cc1ccccc1C(=O)NC1(C(F)(F)F)N=C(c2ccccc2)N(Cc2ccccc2)C1=O (stereo unspecified),"inconclusive: 25.1 µM [cytotoxic, single point]"
15,CCCCS(=O)(=O)c1oc(-c2ccc(F)cc2)nc1S(=O)(=O)c1ccccc1,active: 17.8 µM
16,CCn1c(=O)n(-c2cccc(Cl)c2)c(=O)c2sc3ccccc3c21,"inconclusive: 35.5 µM [cytotoxic, single point]"
17,CCCOc1ccc(NC(=O)CC2C(=O)N(c3ccc(C)cc3)C(=O)N2C2CCCC2)cc1 (stereo unspecified),"inconclusive: 3.16 µM [cytotoxic, single point]"
18,CCSc1ncc(Cl)c(C(=O)N(Cc2ccccc2)Cc2ccco2)n1,inactive
19,COC(=O)c1c(C)oc2ccc(N(C(=O)Oc3ccccc3)S(=O)(=O)c3ccc(C(C)(C)C)cc3)cc12,inactive
20,CCCOc1ccccc1C(=O)Nc1ccc(-c2nc3ccc(C)cc3s2)cc1,"inconclusive: 31.6 µM [cytotoxic, single point]"
21,COc1cccc(OCc2nc3ccccc3n2C)c1,"inconclusive: 12.6 µM [cytotoxic, partial curve]"
22,CCN(CC)CCNC(=O)c1ccc2c(=O)n3nc(Nc4cccc(Cl)c4C)sc3nc2c1,"inconclusive: 31.6 µM [cytotoxic, single point]"

row,SMILES,Potency
1,O=C(Nc1ccccc1)Nc1nnc(CSCc2ccccc2Cl)s1,inactive
2,CN(C)c1ccc(NC(=O)/C=C/c2ccccc2Cl)cc1,"inconclusive: 15.8 µM [cytotoxic, partial curve]"
3,CCOc1ccccc1NC(=O)c1c(NCc2cccs2)sc2c1CCCCC2,"inconclusive: 0.0158 µM [cytotoxic, full curve, poor fit]"
4,CC(=O)Nc1ccc(NC(=O)c2cc3sccc3n2Cc2ccc(Cl)cc2)cc1,"inconclusive: 4.47 µM [cytotoxic, single point]"
5,COC(=O)c1ccc(Cn2c(SCc3ccccc3)nc3ccncc32)cc1,"inconclusive: 12.6 µM [cytotoxic, partial curve]"
6,CCc1ccc(-n2c(SCc3ccccc3C)nc3[nH]ncc3c2=O)cc1,"inconclusive: 3.16 µM [cytotoxic, partial curve]"
7,CCc1c(C)c2ccc(O)c(CN3CCN(c4ccc(OC)cc4)CC3)c2oc1=O,"inconclusive: 12.6 µM [cytotoxic, partial curve]"
8,CCc1cccc(NC(=O)c2oc3ccc4c(c3c2C)C(=O)CC(C)(C)O4)c1,active: 5.01 µM
9,CCOc1ccc2nc(NC(=O)c3ccccc3)sc2c1,"inconclusive: 10 µM [cytotoxic, partial curve]"
10,O=c1c(Cl)c(N2CCN(c3ccc(F)cc3)CC2)cnn1-c1nc2ccccc2s1,"inconclusive: 35.5 µM [cytotoxic, single point]"
11,CCN(CC)CCn1c(-c2ccccc2)csc1=Nc1ccccc1,inactive
12,CC(C)S(=O)(=O)c1oc(-c2cccs2)nc1S(=O)(=O)c1ccc(F)cc1,"inconclusive: 35.5 µM [cytotoxic, single point]"
13,CCOC(=O)N1CCc2c(sc3c2c(=O)n(-c2ccc(CC)cc2)c(=O)n3CC(=O)c2ccc(F)cc2)C1,"inconclusive: 7.94 µM [cytotoxic, partial curve, poor fit]"
14,CC(C)Oc1ccc(C(=O)N(Cc2ccco2)c2ccccn2)cc1,"inconclusive: 12.6 µM [cytotoxic, partial curve]"
15,Cc1ccc(-c2nnc(Nc3cccc(O)c3)c3ccccc23)cc1S(=O)(=O)N1CCOCC1,inactive
16,CN(Cc1ccccc1)C(=O)Nc1ccc2c(c1)N(C)C(=O)c1ccccc1S2,"inconclusive: 31.6 µM [cytotoxic, single point]"
17,CC(C)(C)c1ccc(-c2conc2N)cc1,"inconclusive: 10 µM [cytotoxic, partial curve]"
18,CCc1ccc(C(=O)c2cn(CC(=O)Nc3cc(C)ccc3C)c3nc(C)ccc3c2=O)cc1,inactive
19,O=C(CSc1nnc(-c2ccccc2)o1)c1cccc([N+](=O)[O-])c1,"inconclusive: 31.6 µM [cytotoxic, single point]"
20,CCC(C)NC(=O)c1cc(-c2cccc(OC)c2)on1 (stereo unspecified),"inconclusive: 12.6 µM [cytotoxic, partial curve]"
21,CC(=O)c1ccc(NC(=O)c2cccc(NC(=O)N3CCSc4ncccc43)c2)cc1,"inconclusive: 5.01 µM [cytotoxic, partial curve]"
22,Cc1cccc(CNC(=O)c2ccc(-c3nc(CS(=O)(=O)c4ccccc4)c(C)o3)cc2)c1,inactive

row,SMILES,Potency
1,CSc1ccc(CCNC(=O)C(C)n2nc(C)c3c(C)n(-c4ccccc4)nc3c2=O)cc1 (stereo unspecified),inactive
2,CN(C)c1ccc(N=Nc2ccccc2C(=O)OCC(=O)N(C)c2ccccc2)cc1,"inconclusive: 7.94 µM [cytotoxic, partial curve]"
3,Cc1ccc(C2CCN(C(=O)c3cnn(-c4ccccc4Cl)c3C3CCN(C(=O)OC(C)(C)C)CC3)C2)cc1 (stereo unspecified),inactive
4,COc1ccc(C(=O)/C=C/c2ccc(N3CCCCC3)c([N+](=O)[O-])c2)cc1,"inconclusive: 5.62 µM [cytotoxic, partial curve]"
5,CCCCOc1ccc(CNC(=O)Cn2ncn3c(cc4cc(F)ccc43)c2=O)cc1,"inconclusive: 0.0794 µM [cytotoxic, full curve, poor fit]"
6,Cc1ccc2[nH]cc(C(c3ccccc3)c3cccs3)c2c1 (stereo unspecified),"inconclusive: 35.5 µM [cytotoxic, single point]"
7,Cc1cccc(C(=O)Nc2ccc(-c3nc4ccccc4s3)c(C)c2)c1,"inconclusive: 15.8 µM [cytotoxic, partial curve]"
8,CCn1c(CN2CCN(c3cccc(Cl)c3)CC2)nc2c1c(=O)[nH]c(=O)n2C,"inconclusive: 35.5 µM [cytotoxic, single point]"
9,Cc1ccc(-n2ncc(C(=O)NCCN3CCC(Cc4ccccc4)CC3)c2C2CCN(C(=O)OC(C)(C)C)CC2)cc1,"inconclusive: 25.1 µM [cytotoxic, single point]"
10,CCCn1c2ccccc2c2cnn(CC(=O)N3CCCC(C(=O)OCC)C3)c(=O)c21 (stereo unspecified),"inconclusive: 0.0316 µM [cytotoxic, full curve, poor fit]"
11,CCOCC(=O)Nc1nc2ccc(C)cc2s1,"inconclusive: 12.6 µM [cytotoxic, single point]"
12,CCC(C)OC(=O)/C(C#N)=C/c1ccc(-c2ccc(Br)cc2)o1 (stereo unspecified),"inconclusive: 25.1 µM [cytotoxic, single point]"
13,Cc1cccc(-n2ncc3c(NCCOCCO)ncnc32)c1,"inconclusive: 12.6 µM [cytotoxic, partial curve]"
14,COc1ccc(Cn2c(CO)cnc2SCc2ccccc2)cc1,inactive
15,COc1ccc(C2C(C(=O)Nc3ccccc3)=C(C)Nc3nc(-c4ccc(Cl)cc4)nn32)cc1 (stereo unspecified),"inconclusive: 25.1 µM [cytotoxic, single point]"
16,CS(=O)(=O)N1CCN(c2ccccc2NC(=O)c2ccc3ccccc3c2)CC1,inactive
17,COc1ccccc1NC(=O)c1cc2c(-c3ccccc3)nn(-c3ccccc3)c2s1,"inconclusive: 25.1 µM [cytotoxic, single point]"
18,CCOc1ccc(NC(=O)CC2C(=O)N(c3ccc(OC)cc3)C(=O)N2CCC2=CCCCC2)cc1 (stereo unspecified),"inconclusive: 3.16 µM [cytotoxic, partial curve]"
19,COc1ccccc1Nc1nn2c(=O)c3ccc(C(=O)NCCc4ccccc4)cc3nc2s1,"inconclusive: 20 µM [cytotoxic, single point]"
20,COc1ccc(-c2nc3ccccc3o2)cc1NC(=O)c1cccnc1,inactive
21,CCOC(=O)c1c(C)oc2nc(C)nc(NCCc3ccc(Cl)cc3)c12,inactive
22,COc1ccc(-c2csc(-c3c(N)c(C(=O)c4ccc(OC)c(OC)c4)n4ccccc34)n2)cc1,inactive

# From PubChem BioAssay AID903 (National Center for Advancing Translational Sciences (NCATS), 2007)
